For some of these results: Shown are results outside the selection of strong results, which stands elsewhere. The list shows a part of the results, in another mix than the full data.
How the values were obtained:
[1] = target: RAF proto-oncogene serine/threonine-protein kinase (Homo sapiens) (UniProt P04049); details: at 1 µM;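 note: values are the mean percent inhibition of CRAF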
[2] = target: T1, Interleukin-1 receptor-associated kinase 4 (Homo sapiens) (UniProt Q9NWZ3); details: at 0.1 µM
T1 sequence (whole entry): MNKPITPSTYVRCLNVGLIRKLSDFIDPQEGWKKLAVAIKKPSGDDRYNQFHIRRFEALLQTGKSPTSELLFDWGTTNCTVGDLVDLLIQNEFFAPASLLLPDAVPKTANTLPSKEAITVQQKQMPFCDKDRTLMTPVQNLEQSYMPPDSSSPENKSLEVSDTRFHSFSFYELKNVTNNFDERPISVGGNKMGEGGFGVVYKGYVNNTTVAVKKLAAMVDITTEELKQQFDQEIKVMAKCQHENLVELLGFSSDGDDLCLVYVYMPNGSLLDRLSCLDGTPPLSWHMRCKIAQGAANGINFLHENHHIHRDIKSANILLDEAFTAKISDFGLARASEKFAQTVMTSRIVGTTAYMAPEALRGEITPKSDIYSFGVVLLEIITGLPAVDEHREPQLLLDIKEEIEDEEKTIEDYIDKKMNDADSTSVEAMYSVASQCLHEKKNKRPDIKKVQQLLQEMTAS

[3] = target: T1, Interleukin-1 receptor-associated kinase 4 (Homo sapiens); details: at 1 µM
[4] = target: Leucine-rich repeat serine/threonine-protein kinase 2 (Homo sapiens) (UniProt Q5S007); details: at 0.1 µM
[5] = target: Leucine-rich repeat serine/threonine-protein kinase 2 (Homo sapiens) (UniProt Q5S007); details: at 1 µM
[6] = tested on: Leucine-rich repeat serine/threonine-protein kinase 2 (Homo sapiens), Q5S007 [G2019S]; details: at 0.1 µM
[7] = tested on: Leucine-rich repeat serine/threonine-protein kinase 2 (Homo sapiens), Q5S007 [G2019S]; details: at 1 µM

Chain of UniProt Q5S007 (Q5S007 whole entry): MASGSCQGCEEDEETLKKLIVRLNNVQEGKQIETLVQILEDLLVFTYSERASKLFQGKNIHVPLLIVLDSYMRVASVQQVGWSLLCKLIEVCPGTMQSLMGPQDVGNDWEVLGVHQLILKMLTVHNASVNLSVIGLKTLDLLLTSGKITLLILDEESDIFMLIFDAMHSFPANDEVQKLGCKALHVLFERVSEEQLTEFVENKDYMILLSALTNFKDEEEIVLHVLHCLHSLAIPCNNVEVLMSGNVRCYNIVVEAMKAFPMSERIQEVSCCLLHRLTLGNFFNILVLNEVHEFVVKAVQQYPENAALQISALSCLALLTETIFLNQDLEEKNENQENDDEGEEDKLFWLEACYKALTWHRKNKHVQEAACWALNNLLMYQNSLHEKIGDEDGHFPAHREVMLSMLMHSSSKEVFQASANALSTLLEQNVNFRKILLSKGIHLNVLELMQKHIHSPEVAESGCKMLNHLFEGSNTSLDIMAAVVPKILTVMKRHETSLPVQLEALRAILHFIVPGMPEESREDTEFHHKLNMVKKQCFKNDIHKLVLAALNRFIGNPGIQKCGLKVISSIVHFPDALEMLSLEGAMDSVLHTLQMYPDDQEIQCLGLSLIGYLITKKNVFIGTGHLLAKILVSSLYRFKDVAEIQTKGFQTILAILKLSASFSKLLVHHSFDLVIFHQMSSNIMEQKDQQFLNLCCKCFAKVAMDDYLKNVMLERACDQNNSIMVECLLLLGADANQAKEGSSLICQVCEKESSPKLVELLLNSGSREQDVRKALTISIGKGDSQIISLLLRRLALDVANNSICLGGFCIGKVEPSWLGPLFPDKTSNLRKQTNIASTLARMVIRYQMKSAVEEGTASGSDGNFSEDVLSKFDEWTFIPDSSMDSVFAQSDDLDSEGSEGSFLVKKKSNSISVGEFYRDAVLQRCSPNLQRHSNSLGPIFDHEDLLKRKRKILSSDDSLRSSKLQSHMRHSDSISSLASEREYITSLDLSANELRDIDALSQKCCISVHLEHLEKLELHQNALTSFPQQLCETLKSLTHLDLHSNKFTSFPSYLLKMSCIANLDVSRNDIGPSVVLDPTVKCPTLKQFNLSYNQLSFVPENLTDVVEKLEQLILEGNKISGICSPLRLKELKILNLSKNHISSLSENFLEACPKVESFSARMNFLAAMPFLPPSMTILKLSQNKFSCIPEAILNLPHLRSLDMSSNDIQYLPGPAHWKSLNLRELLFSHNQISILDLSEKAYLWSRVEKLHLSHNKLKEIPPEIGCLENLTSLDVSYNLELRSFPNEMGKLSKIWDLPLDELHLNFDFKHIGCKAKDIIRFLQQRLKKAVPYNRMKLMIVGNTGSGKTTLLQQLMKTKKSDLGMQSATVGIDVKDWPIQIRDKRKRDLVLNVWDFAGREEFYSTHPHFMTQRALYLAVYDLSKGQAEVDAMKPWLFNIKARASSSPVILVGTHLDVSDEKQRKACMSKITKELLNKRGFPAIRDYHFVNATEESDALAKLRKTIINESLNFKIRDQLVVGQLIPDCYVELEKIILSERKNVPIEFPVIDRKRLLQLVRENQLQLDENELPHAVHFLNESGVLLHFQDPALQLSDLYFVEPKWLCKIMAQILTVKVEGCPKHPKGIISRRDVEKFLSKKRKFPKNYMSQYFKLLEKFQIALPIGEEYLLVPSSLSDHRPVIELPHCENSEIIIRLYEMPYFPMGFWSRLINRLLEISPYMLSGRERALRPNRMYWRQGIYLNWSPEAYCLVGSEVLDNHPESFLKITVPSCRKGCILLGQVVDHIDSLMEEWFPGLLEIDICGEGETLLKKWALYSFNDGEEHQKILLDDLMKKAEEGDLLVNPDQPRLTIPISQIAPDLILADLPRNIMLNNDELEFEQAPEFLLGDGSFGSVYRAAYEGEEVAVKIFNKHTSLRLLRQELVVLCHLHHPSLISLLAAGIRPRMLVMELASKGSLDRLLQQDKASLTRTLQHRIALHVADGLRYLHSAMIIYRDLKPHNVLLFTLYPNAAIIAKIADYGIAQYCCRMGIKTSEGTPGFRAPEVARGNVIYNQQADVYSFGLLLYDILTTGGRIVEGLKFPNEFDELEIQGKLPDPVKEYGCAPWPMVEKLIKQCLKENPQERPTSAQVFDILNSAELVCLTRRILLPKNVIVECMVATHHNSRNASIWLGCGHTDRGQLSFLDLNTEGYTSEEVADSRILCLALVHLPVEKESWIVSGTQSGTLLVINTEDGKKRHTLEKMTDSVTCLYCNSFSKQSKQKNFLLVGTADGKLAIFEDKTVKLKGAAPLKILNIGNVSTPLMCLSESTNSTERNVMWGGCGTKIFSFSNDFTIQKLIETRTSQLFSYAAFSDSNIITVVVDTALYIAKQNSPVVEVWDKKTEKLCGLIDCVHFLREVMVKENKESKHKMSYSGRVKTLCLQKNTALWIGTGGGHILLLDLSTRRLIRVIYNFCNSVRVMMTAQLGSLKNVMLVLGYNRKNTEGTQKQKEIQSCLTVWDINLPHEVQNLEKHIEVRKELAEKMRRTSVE
Chain of UniProt P04049 (P04049 whole entry): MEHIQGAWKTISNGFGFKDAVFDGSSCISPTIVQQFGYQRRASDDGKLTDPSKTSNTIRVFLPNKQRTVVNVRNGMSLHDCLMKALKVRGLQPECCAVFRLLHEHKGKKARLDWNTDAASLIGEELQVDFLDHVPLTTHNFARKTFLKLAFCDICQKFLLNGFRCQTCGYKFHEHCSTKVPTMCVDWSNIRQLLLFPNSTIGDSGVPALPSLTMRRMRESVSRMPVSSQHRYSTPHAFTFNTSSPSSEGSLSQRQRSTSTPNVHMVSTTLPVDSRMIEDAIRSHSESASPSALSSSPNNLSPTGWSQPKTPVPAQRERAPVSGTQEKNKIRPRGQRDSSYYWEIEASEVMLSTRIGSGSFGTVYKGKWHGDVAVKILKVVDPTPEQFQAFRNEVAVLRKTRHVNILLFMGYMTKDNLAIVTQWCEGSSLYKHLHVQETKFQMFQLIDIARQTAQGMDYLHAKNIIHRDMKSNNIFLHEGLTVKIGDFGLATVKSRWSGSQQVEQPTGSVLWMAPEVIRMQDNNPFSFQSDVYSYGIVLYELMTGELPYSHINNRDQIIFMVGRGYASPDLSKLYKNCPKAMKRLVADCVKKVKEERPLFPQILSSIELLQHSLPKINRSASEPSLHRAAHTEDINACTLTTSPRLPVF

Fc1ccc(-c2ncn(C3CCNCC3)c2-c2ccnc(Oc3ccc(Cl)cc3)n2)cc1
inhibition [1]: -3.88%
inhibition [2]: 0.34%
inhibition [3]: 0.58%
inhibition [4]: 2.39%
inhibition [5]: 3.86%
inhibition [6]: 3.3%
inhibition [7]: 4.86%

CS(=O)(=O)c1ccc(Oc2nccc(-c3c(-c4ccc(F)cc4)ncn3C3CCNCC3)n2)cc1
inhibition [1]: 0.92%
inhibition [2]: 1.58%
inhibition [3]: 2.09%
inhibition [4]: 0.64%
inhibition [5]: 1.79%
inhibition [6]: 1.98%
inhibition [7]: 3.86%

Cc1cccc(Oc2nccc(-c3c(-c4ccc(F)cc4)ncn3C3CCNCC3)n2)c1C
inhibition [1]: -2.91%
inhibition [2]: 0.99%
inhibition [3]: 1.42%
inhibition [4]: 3.93%
inhibition [5]: 5.9%
inhibition [6]: 6.1%
inhibition [7]: 6.11%

O=C(O)c1ccc(Oc2nccc(-c3c(-c4ccc(F)cc4)ncn3C3CCNCC3)n2)cc1
inhibition [1]: 1.09%
inhibition [2]: 2.29%
inhibition [3]: 2.96%
inhibition [4]: -0.02%
inhibition [5]: 4.54%
inhibition [6]: 5.67%
inhibition [7]: 7.17%

COc1ccccc1Oc1nccc(-c2c(-c3ccc(F)cc3)ncn2C2CCNCC2)n1
inhibition [1]: -2.08%
inhibition [2]: 2.05%
inhibition [3]: 2.51%
inhibition [4]: 5.39%
inhibition [5]: 10.7%
inhibition [7]: 9.79%

COc1ccccc1C1=C(Nc2ccccc2)C(=O)NC1=O
inhibition [1]: 7.07%
inhibition [2]: -2.94%
inhibition [3]: 2.37%
inhibition [4]: 6.94%
inhibition [5]: 19.8%
inhibition [6]: 7.96%
inhibition [7]: 43%

CC(C)(C)c1ccc(Oc2nccc(-c3c(-c4ccc(F)cc4)ncn3C3CCNCC3)n2)cc1
inhibition [1]: 2.42%
inhibition [2]: 1.66%
inhibition [3]: 1.82%
inhibition [4]: 0.01%
inhibition [5]: 2.66%
inhibition [6]: 2.16%
inhibition [7]: 5%

Fc1ccc(-c2ncn(C3CCNCC3)c2-c2ccnc(Oc3cccc(C(F)(F)F)c3)n2)cc1
inhibition [1]: 3.35%
inhibition [2]: 1.97%
inhibition [3]: 2.24%
inhibition [4]: 3.65%
inhibition [5]: 2.72%
inhibition [6]: 5.63%
inhibition [7]: 6.94%

Fc1ccc(-c2ncn(C3CCNCC3)c2-c2ccnc(Oc3cccc(F)c3)n2)cc1
inhibition [1]: -2.04%
inhibition [2]: 2.63%
inhibition [3]: 3.7%
inhibition [4]: 1.96%
inhibition [5]: 5.87%
inhibition [6]: 3.94%
inhibition [7]: 8.54%

O=C1NC(=O)C(c2ccccc2Cl)=C1Nc1cc(Cl)c(O)c(Cl)c1
inhibition [1]: -3.29%
inhibition [2]: -4.26%
inhibition [3]: 0.97%
inhibition [4]: 5.19%
inhibition [5]: 19.4%
inhibition [6]: 2.18%
inhibition [7]: 15.9%

Fc1ccc(Oc2nccc(-c3c(-c4ccc(F)cc4)ncn3C3CCNCC3)n2)cc1
inhibition [1]: 1.41%
inhibition [2]: 1.36%
inhibition [3]: 1.99%
inhibition [4]: -7.79%
inhibition [5]: -7.97%
inhibition [6]: -1.5%
inhibition [7]: -0.89%

O=C1NC(=O)C(c2ccccc2)=C1Nc1ccccc1
inhibition [1]: 0.27%
inhibition [2]: 2.01%
inhibition [3]: 2.54%
inhibition [4]: 5.4%
inhibition [5]: 16%
inhibition [6]: 4.55%
inhibition [7]: 21.7%

NC(=O)CCc1ccccc1Oc1nccc(-c2c(-c3ccc(F)cc3)ncn2C2CCNCC2)n1
inhibition [1]: -0.43%
inhibition [2]: -0.81%
inhibition [3]: -0.77%
inhibition [4]: -0.3%
inhibition [5]: -2.56%
inhibition [6]: 1.67%
inhibition [7]: 2.77%

O=C1NC(=O)C(c2cccc([N+](=O)[O-])c2)=C1Nc1cc(Cl)c(O)c(Cl)c1
inhibition [1]: 9.49%
inhibition [2]: 0.93%
inhibition [3]: 0.63%
inhibition [4]: 4.32%
inhibition [5]: 21%
inhibition [6]: 4.25%
inhibition [7]: 13.9%

Source: ChEMBL document CHEMBL1961873, “Compounds: GSK PKIS; Assays: Nanosyn kinase panel” (2012)
